In PubChem BioAssay AID1346428 (National Center for Advancing Translational Sciences (NCATS), 2018):
The campaign covered roughly 48,000 compounds. About 1,200 (2.5%) were called active. Inconclusive results (about 2%) are left out.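 The calls were made as follows: active = activation of at least 60% and not above a set upper limit (about 1 call in 100 departs from these limits); inconclusive = activation of 40% to 60%, or above that upper limit; inactive = activation under 40%.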 The list shows a part of the results.

Target: Probable G-protein coupled receptor 32 (Homo sapiens) (UniProt O75388)
Chain of UniProt O75388 (O75388 whole entry, looked up): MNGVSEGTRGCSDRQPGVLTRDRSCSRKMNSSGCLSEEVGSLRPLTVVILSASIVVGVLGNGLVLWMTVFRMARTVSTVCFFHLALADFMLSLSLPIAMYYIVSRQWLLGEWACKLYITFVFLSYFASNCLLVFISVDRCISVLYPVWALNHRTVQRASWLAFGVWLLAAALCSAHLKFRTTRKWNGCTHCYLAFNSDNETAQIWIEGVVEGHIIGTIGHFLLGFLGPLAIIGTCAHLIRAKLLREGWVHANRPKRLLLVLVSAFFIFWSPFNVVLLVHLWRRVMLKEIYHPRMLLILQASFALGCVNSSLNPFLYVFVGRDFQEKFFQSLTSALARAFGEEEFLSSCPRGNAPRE
Assay: qHTS for Agonists of Human Resolvin D1 Receptor DRV1; also: 0% is about no effect
Details: CHO-K1 GPR32 beta-arrestin PathHunter luminescence, 90 min; at 76.9 µM; hits give high values; zero percent set by DMSO-only wells
Procedure, shortened: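 PathHunter beta-arrestin recruitment in CHO-K1 cells stably expressing ProLink-tagged GPR32. Cells were exposed to compound for 90 min at 37 C, then chemiluminescence was read after 1 h detection at ambient temperature; DMSO served as basal control.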

SMILES	activation
Cc1ccc(CSc2nc3cccnc3n2Cc2ccc(C(=O)NCc3ccco3)cc2)cc1	inactive: 25.5%
CCc1ccccc1NC(=O)CSc1nncn2c1cc1oc(C)cc12	inactive: -12.8%
COc1ccc(CN2C(=O)C(NC(=O)c3cccc(C)c3)(C(F)(F)F)N=C2c2ccccc2)cc1 (configuration not stated)	inactive: -41.7%
Cn1c2ccccc2c2cnn(CC(=O)NCCCN3CCCCC3)c(=O)c21	inactive: 1.97%
CCOc1ccc(NC(=O)CSc2cn(CCNC(=O)c3ccccc3F)c3ccccc23)cc1	inactive: 13.6%
Fc1ccc(C(c2nnc(-c3ccccc3)o2)N2CCN(c3cccc(Cl)c3)CC2)cc1 (configuration not stated)	inactive: -1.81%
CC(=O)c1cccc(NC(=O)CSc2nnc3ccc(-c4ccc(Br)cc4)nn23)c1	inactive: -1.84%
O=C(NCCS(=O)(=O)N1CCN(c2ccc(F)cc2)CC1)C(c1ccccc1)c1ccccc1	inactive: -19.7%
CCOC(=O)C(CC)n1nnc2sc(-c3ccccc3)cc2c1=O (configuration not stated)	inactive: 2.13%
CC(C)Oc1ccccc1-c1nc(SCC(=O)c2ccc(F)cc2)n[nH]1	inactive: 19.3%
Cc1ccc(Nc2c(-c3c[nH]c4ccccc34)nc3ccccn23)cc1	inactive: 5.18%
Cc1ccc2oc(=O)c3cnn(CC(=O)N4CCN(c5ccc(F)cc5)CC4)c3c2c1	inactive: 0.135%
COc1ccc(OC)c(CCNC(=O)c2cc3c(s2)-c2c(C)cccc2OC3)c1	inactive: 3.73%
Cc1ccc(-n2c(=O)c3sc4ccccc4c3n(CC(=O)NC3CCCC3)c2=O)cc1C	inactive: -1.63%
Cc1ccc(NC(=O)Cn2c(=O)n(Cc3ccccc3)c(=O)c3sc4ccccc4c32)cc1	inactive: -7.83%
Cc1ccc(CNC(=O)CSc2nc3c(sc4ccccc43)c(=O)n2CCCOC(C)C)cc1	inactive: -6.57%
CCN(CC)S(=O)(=O)c1ccc(NC(=O)CN(c2ccccc2)S(=O)(=O)N(C)C)cc1	inactive: 16.9%
O=C(CN1C(=O)C2(SCC(=O)N2c2cccc(Cl)c2)c2ccccc21)NCCc1ccccc1 (configuration not stated)	inactive: -8.04%
CCOc1ccc(NC(=O)c2c(Nc3ccccc3C)sc(C(=O)c3ccccc3)c2N)cc1	inactive: -86.3%
Cc1c(Cl)cccc1-c1ccc(CNCCSc2nnnn2-c2ccccc2)o1	inactive: -12.5%
CCS(=O)(=O)c1ncc(N(Cc2ccccc2)Cc2ccco2)c(C(=O)Nc2cccc(Cl)c2C)n1	inactive: -13.8%
COc1ccccc1C(=O)Nc1ccc2nc(SCC(=O)N(C)c3ccccc3)sc2c1	inactive: 12%
NC[C@H]1O[C@@H](n2cnc3c(N)ncnc32)[C@H](O)[C@@H]1O	inactive: 2.99%
CCOc1ccc(NC(=O)C(Cc2ccccc2)NS(=O)(=O)c2ccc3c(c2)oc(=O)n3C)cc1 (configuration not stated)	inactive: 0.0475%
CCOc1ccc(CNC(=O)c2ccc3c(c2)c(C)c(C)n3Cc2ccccc2)cc1OC	inactive: -16.4%
COC(=O)c1ccc(Cl)cc1NC(=O)Nc1nnc(N2CCCC2)s1	inactive: -12.6%

SMILES	activation
COc1ccc(CCNC(=O)c2ccc3c(c2)N(Cc2ccccc2)C(=O)c2ccccc2S3=O)cc1OC (configuration not stated)	inactive: -5.41%
Cc1ccc(C)c(Cn2c3ccccc3c3cnn(CC(=O)NC(C)CCc4ccccc4)c(=O)c32)c1 (configuration not stated)	inactive: -5.71%
Cc1ccc(-n2ncc(C(=O)N3CCN(c4cc(Cl)ccc4C)CC3)c2C2CCN(C(=O)OC(C)(C)C)CC2)cc1	inactive: -22.3%
COc1ccc(NC(=O)c2c(NCc3cccs3)sc3c2CCC(C)C3)c(OC)c1 (configuration not stated)	inactive: 16.7%
CCCCCN(CCCOC)C(=O)C(CCC(=O)O)NC(=O)c1ccc(Cl)c(Cl)c1 (configuration not stated)	inactive: -3.34%
O=C(CSc1nnc(-c2ccccc2Cl)o1)N1CCCc2ccccc21	inactive: 4.05%
COc1ccc(S(=O)(=O)NCC(c2cccs2)S(=O)(=O)c2ccccc2)cc1OC (configuration not stated)	inactive: -17%
COc1ccc(-c2nnc(SCC(=O)Nc3cccc(C(F)(F)F)c3)s2)cc1	inactive: 30.1%
CCOc1ccc(C(=O)c2cn(CC(=O)Nc3ccc(Cl)cc3)c3cc4c(cc3c2=O)OCO4)cc1	inactive: 3.41%
Cc1nn(C)c2c1c(C(F)(F)F)cc(=O)n2C(C)C(=O)Nc1ccccc1F (configuration not stated)	inactive: -0.566%
Cc1c(C(=O)N(Cc2ccccc2F)C2CCS(=O)(=O)C2)oc2ccccc12 (configuration not stated)	inactive: -12%
CC(=O)N1CCc2cc(Br)cc(S(=O)(=O)CCC(=O)N3CCN(c4ccc(F)cc4)CC3)c21	inactive: 5.41%
Cc1ccc(CN2CCC(CNC(=O)c3cnn(-c4ccccc4Cl)c3C3CCN(C(=O)OC(C)(C)C)CC3)CC2)cc1	inactive: -19.2%
COc1cc(/C=C/c2nc(C#N)c(N3CCN(C)CC3)o2)cc(OC)c1OC	inactive: -16.4%
CN(C(=O)c1ccc2c(c1)N(Cc1cccc(Cl)c1)C(=O)c1ccccc1S2(=O)=O)C1CCCCC1	inactive: -35%
COc1ccc(NC(=O)COCc2cc(-c3ccc4c(c3)OCO4)on2)cc1	inactive: 16.8%
COc1cccc(NS(=O)(=O)c2ccc3c(c2)n(C)c(=O)n3C)c1	active: 85.9%
Cc1c(-c2nc(-c3ccccc3)no2)nnn1-c1ccc(F)c(Cl)c1	inactive: -8.48%
CCc1ccc(NC(=O)Cn2c(=O)n(-c3ccc(Cl)c(Cl)c3)c(=O)c3c(C)c(C)sc32)cc1	inactive: -2.47%
COc1ccc(Cl)c2sc(NC(=O)c3ccc(S(=O)(=O)N4CCOCC4)cc3)nc12	inactive: -24.8%
CSc1cccc(NC(=O)C2CCN(c3nc4ccccc4[nH]3)CC2)c1	inactive: -4.98%
Cc1ccc(Cn2c(SCc3ccc(C(=O)NC4CCCCC4)cc3)nc3ccncc32)cc1	inactive: 3.16%
COCCNC(=O)c1cnc2sc(N3CCCCC3)nn2c1=O	inactive: 7.48%
CC(=O)OCC(COC(C)=O)OC(C)=O	inactive: -8.03%
Cc1ccc(-c2nc3c(c(SCc4ccc(Br)cc4)n2)Cc2c(CO)cnc(C)c2O3)cc1	inactive: 16.4%
CSc1cccc(NC(=O)c2cnn(-c3ccc(F)cc3)c2-n2cccc2)c1	inactive: -3.8%
